{"source": "paper PMC3424236", "about": "“Siderocalin/Lcn2/NGAL/24p3 Does Not Drive Apoptosis Through Gentisic Acid Mediated Iron Withdrawal in Hematopoietic Cell Lines” (PLoS ONE, 2012)", "key": {"Transduced FL5.12": {"tested_on": "Transduced FL5.12", "assay": "Apoptosis/viability of FL5.12 cells stably transduced with Scn", "type": "cell-based, murine", "settings": "iron-free compounds added at 100 µM, with IL-3"}, "human Scn": {"target": "T1, human Scn (Homo sapiens, UniProt P80188)", "T1 construct": "made in house; host or cells: E. coli", "assay": "Fluorescence quenching (FQ) binding assay", "settings": "for fluorescence quenching / binding to Scn: alone (desferri) or in the presence of iron (ferric)"}, "[1]": {"assay": "Solution speciation of iron complexes (HYSS, UV/Vis spectroscopy)", "settings": "[Fe3+] = 20 µM, [L] = 60 µM; calculated with HYSS, confirmed by UV/Vis"}, "Scn [2]": {"tested_on": "T2, Scn", "T2 construct": "made in house; host or cells: E. coli", "settings": "cited from earlier work"}, "Scn [3]": {"tested_on": "T2, Scn", "assay": "Filter retention (ultrafiltration) binding assay", "settings": "apo-Scn 10 µM, candidate siderophore 10 µM, pH 7.4, 60 min; Figure S2A"}, "Transduced 32D.3": {"tested_on": "Transduced 32D.3", "assay": "Apoptosis/viability of 32D.3 cells stably transduced with Scn", "type": "cell-based, murine", "settings": "iron-free compounds added at 100 µM, with IL-3"}, "Scn [4]": {"target": "Scn", "settings": "cited from earlier work"}, "[5]": {"settings": "unfittable, compared with the derived 2,3-DHBA KD, presence or absence of iron, read-out: dissociation constants"}}, "note": "Like-named read-outs stand apart in the source and are kept apart here.", "data": [{"compound": "O=C(O)c1cccc(O)c1O", "note": "[2,3-DHBA, 2,3-dihydroxybenzoic acid]", "values": [{"measurement": "effect on apoptosis / viability", "setting": "Transduced FL5.12", "result": "none of the other compounds had significant effects on viability"}, {"measurement": "Kd", "setting": "human Scn; desferri ligand, pH 7.2, read-out: KD", "result": "400 ± 10", "unit": "nM"}, {"measurement": "Kd", "setting": "human Scn; mixtures of iron and ligand, Fe:L complex, pH 7.2, read-out: KD", "result": "0.101 ± 0.002", "unit": "nM"}, {"measurement": "formation of ferric complexes as a function of pH", "setting": "[1]", "result": "formed ferric complexes at physiological pH"}, {"measurement": "pH below which iron is released from Scn/siderophore/iron complexes", "setting": "Scn [2]", "result": "< 4"}, {"measurement": "iron retention", "setting": "Scn [3]", "result": "greater than 50%"}, {"measurement": "effect on apoptosis / viability", "setting": "Transduced 32D.3", "result": "none of the other compounds had significant effects on viability"}]}, {"compound": "O=C(N[C@H]1COC(=O)[C@@H](NC(=O)c2cccc(O)c2O)COC(=O)[C@@H](NC(=O)c2cccc(O)c2O)COC1=O)c1cccc(O)c1O", "note": "[Ent, enterobactin]", "values": [{"measurement": "effect on apoptosis / viability", "setting": "Transduced FL5.12", "result": "induced robust apoptosis"}, {"measurement": "pH below which iron is released from Scn/siderophore/iron complexes", "setting": "Scn [2]", "result": "< 4"}, {"measurement": "Kd", "setting": "Scn [4]; read-out: equilibrium dissociation constant (KD), binding to Scn", "result": "0.4 ± 0.1", "unit": "nM"}, {"measurement": "iron retention", "setting": "Scn [3]", "result": "greater than 50%"}, {"measurement": "effect on apoptosis / viability", "setting": "Transduced 32D.3", "result": "induced robust apoptosis"}]}, {"compound": "O=C(O)c1cc(O)ccc1O", "note": "[GA, 2,5-dihydroxybenzoic acid]", "values": [{"measurement": "effect on apoptosis / viability", "setting": "Transduced FL5.12", "result": "none of the other compounds had significant effects on viability"}, {"measurement": "fluorescence quenching / binding to Scn", "setting": "human Scn; pH 7.2", "result": "weak binding to Scn"}, {"measurement": "Kd", "setting": "human Scn; [5]", "result": "> 400", "unit": "nM"}, {"measurement": "Kd", "setting": "Scn [4]; binding to Scn in the absence of iron", "result": 12, "unit": "nM"}, {"measurement": "iron retention", "setting": "Scn [3]", "result": "less than 10%"}, {"measurement": "effect on apoptosis / viability", "setting": "Transduced 32D.3", "result": "none of the other compounds had significant effects on viability"}]}, {"compound": "O=C(O)c1ccccc1O", "note": "[SA, 2-hydroxybenzoic acid]", "values": [{"measurement": "binding of ferric complexes to Scn", "setting": "Scn [4]", "result": "do not bind to Scn"}]}, {"compound": "O=C(NCCN(CCNC(=O)c1cccc(O)c1O)CCNC(=O)c1cccc(O)c1O)c1cccc(O)c1O", "note": "[TRENCAM]", "values": [{"measurement": "Kd", "setting": "Scn [4]; binding to Scn", "result": "0.32 ± 0.01", "unit": "nM"}]}, {"compound": "O=C(NCCN(CCNC(=O)c1cc(O)ccc1O)CCNC(=O)c1cc(O)ccc1O)c1cc(O)ccc1O", "note": "[TRENGEN]", "values": [{"measurement": "effect on apoptosis / viability", "setting": "Transduced FL5.12", "result": "none of the other compounds had significant effects on viability"}, {"measurement": "fluorescence quenching / binding to Scn", "setting": "human Scn; pH 7.2", "result": "weak binding to Scn"}, {"measurement": "Kd", "setting": "human Scn; [5]", "result": "> 400", "unit": "nM"}, {"measurement": "effect on apoptosis / viability", "setting": "Transduced 32D.3", "result": "none of the other compounds had significant effects on viability"}]}, {"compound": "Oc1ccccc1O", "note": "[catechol, 1,2-dihydroxybenzene]", "values": [{"measurement": "formation of ferric complexes as a function of pH", "setting": "[1]", "result": "formed ferric complexes at physiological pH"}, {"measurement": "pH below which iron from Scn/catechol complexes is released", "setting": "Scn [2]", "result": "below 6"}, {"measurement": "Kd", "setting": "Scn [4]; free catechol binding to Scn", "result": "200 ± 60", "unit": "nM"}, {"measurement": "iron retention", "setting": "Scn [3]", "result": "greater than 50%"}]}, {"compound": "O=C(CC(O)(CC(=O)NCCCCNCCCNC(=O)c1ccc(O)c(O)c1)C(=O)O)NCCCCNCCCNC(=O)c1ccc(O)c(O)c1", "note": "[petrobactin]", "values": [{"measurement": "binding to Scn as iron complexes", "setting": "Scn [4]", "result": "do not bind to Scn"}]}]}
